From PubChem BioAssay AID488969 (Vanderbilt High Throughput Screening Facility, 2010) come the findings set out here.

The structures appear in SMILES notation. Whole data set: some 110,000 compounds, median “z-score” near -0.1, cut for the highest 2% near 2. This is one part of the list. Active and inactive are the calls of the source.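 The calls were made as follows: active = z-score in the third read window above 3 or below -3; inactive = the rest.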

In the experiment the target is Metabotropic glutamate receptor 8 (Rattus norvegicus) (UniProt P70579). Put plainly: rat mGluR8 modulators via GIRK flux, primary screen, cell-based, thallium flux, HTS (AID 488969). Conditions: HEK293 rat mGluR8, GIRK (G protein-gated inwardly rectifying potassium channel) thallium flux, FluoZin2; at 10 µM; stronger effect = higher value; submaximal glutamate (EC20) added with thallium.
UniProt P70579, sequence (P70579 whole entry, looked up): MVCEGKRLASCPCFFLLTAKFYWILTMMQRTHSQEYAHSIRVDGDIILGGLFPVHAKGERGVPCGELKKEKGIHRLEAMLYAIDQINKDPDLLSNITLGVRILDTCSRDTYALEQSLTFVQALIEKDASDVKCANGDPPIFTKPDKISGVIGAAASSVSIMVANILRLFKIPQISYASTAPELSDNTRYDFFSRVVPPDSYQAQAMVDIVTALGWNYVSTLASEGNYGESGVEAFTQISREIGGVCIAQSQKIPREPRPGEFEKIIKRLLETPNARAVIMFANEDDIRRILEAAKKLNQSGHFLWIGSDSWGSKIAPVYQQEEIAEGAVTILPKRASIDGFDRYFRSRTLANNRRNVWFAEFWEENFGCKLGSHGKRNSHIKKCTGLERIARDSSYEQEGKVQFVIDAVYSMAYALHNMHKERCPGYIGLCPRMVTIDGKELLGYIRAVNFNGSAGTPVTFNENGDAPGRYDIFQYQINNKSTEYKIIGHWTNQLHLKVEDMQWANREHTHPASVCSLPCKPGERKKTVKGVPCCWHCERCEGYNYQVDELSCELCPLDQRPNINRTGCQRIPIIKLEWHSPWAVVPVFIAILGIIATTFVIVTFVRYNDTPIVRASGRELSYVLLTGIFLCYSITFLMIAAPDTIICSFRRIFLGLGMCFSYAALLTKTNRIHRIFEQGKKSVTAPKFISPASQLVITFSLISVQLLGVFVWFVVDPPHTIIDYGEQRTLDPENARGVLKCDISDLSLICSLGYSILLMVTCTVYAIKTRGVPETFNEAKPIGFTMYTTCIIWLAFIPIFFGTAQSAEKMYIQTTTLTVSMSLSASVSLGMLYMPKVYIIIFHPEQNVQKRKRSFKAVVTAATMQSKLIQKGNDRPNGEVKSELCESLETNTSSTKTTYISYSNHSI
In turn, `CC(C)NC(=S)NC1(C)CCS(=O)(=O)C1` (configuration not stated) displayed a z-score of 0.19.
With `CC(=O)c1cc2c(cc1N/C(=N/S(=O)(=O)c1ccc(C)cc1)c1ccc(Cl)cc1)OCO2` the figure was -0.128; with `O=C(CSC(=S)N1CCOCC1)Nc1nc(=O)c2ccccc2s1`, 0.0572.
Turning to `CCOc1ccc(OCC)c(NC(=O)CSc2nc3c(c(=O)n(C)c(=O)n3C)n2CC)c1`, the z-score is -0.252.
With `NC(=O)c1nn(-c2cccc(Cl)c2)c(=O)cc1O` the figure was -0.141.
With `CN=C(Nc1ccc(Cl)cc1)c1ccc(C(F)(F)F)cc1` the figure was 0.262; with `COc1ccc(-n2c(SCC(=O)Nc3ccc4c(c3)OCO4)nc3c(c2=O)SCC3)cc1`, -0.429; with `Cc1ccc(OC(=O)c2ccc(C)c(C)c2)cn1`, 0.22.
Take `CC(=O)c1cc(-c2ccccc2)n(CC(=O)N2CCCCC2)c1C`: the z-score is -0.111.
In turn, `CSc1nc(N)nc(SCC(=O)c2ccccc2)c1C#N` yielded a z-score of 0.434.
With `O=C(Cn1ncc2c(=O)oc3ccccc3c21)NCCC1=CCCCC1` the figure was -1.17; with `CC1CCN(C(=O)CSc2nnc(-c3ccco3)o2)CC1`, -0.259; with `O=C1OCc2cc(NC(=O)C34CC5CC(CC(C5)C3)C4)ccc21`, 0.585.
In the case of `O=C(NCCc1ccccc1)c1ccc2nc(-c3ccco3)c(-c3ccco3)nc2c1`, the z-score is -0.154.
With `Cc1ccc(S(=O)(=O)N2CCCC(C(=O)NCc3ccccn3)C2)cc1` (configuration not stated) the figure was -0.274; with `Cc1ccc(Nc2nnc(C(C)(C)C)c(=O)n2N)cc1`, -0.0615; with `O=C(Nc1ccc(Br)c(Cl)c1)C1CC1`, 0.469.
As for `c1ccc(-c2nnc3sc(CN4CCc5ccccc54)cn23)cc1`, the z-score is -1.18.
Take `Cc1ccc(S(=O)(=O)NN2C(=O)/C(=C/c3cccn3C)SC2=S)cc1`: the z-score was -0.623.
With `O=C(CSc1nccc(=O)[nH]1)Nc1ccc(F)c([N+](=O)[O-])c1` the figure was -0.125; with `CC(C)(C)c1cc(C(=S)N2CCN(CCO)CC2)cc(C(C)(C)C)c1O`, 1.54.
Take `O=C(CSCc1cccc(CSCC(=O)Nc2ccccc2)n1)Nc1ccccc1`: the z-score was -0.274.
Turning to `COc1cc2c(cc1NC(=O)CSc1nccn1C)oc1ccccc12`, the z-score was -0.679.
In the case of `Cc1ccccc1NC1=C(Cl)C(=O)OC1NC(=O)c1ccccc1` (configuration not stated), the z-score is -0.315.
`CCOc1ccc(N(C(=O)Cn2nnc3ccccc32)C(C(=O)NC(C)(C)CC)c2cccn2C)cc1` (configuration not stated): the z-score is -0.0556.
For `CCCCC(=O)Nc1ccc2c(c1)oc1ccccc12`, the z-score is -0.0389.
In the case of `CC(NC(=O)OCc1ccccc1)C(=O)OCN1C(=O)c2ccccc2C1=O` (configuration not stated), the z-score is -1.16.
As to `CCCOC(=O)C1C2C=C[C@]3(CN(CCc4ccccc4)C(=O)[C@H]13)O2` (some centres not stated), the z-score is -0.0436.
For the compound `Cc1nn(Cc2ccc([N+](=O)[O-])cc2)c(=O)n1-c1c(F)cccc1F`, the z-score was found to be 0.0221.
For `CCCCNC(=O)C1CCCN1C(=O)NC1CCCCC1` (configuration not stated) the value was 0.126; for `Cc1cc(C)c(NC(=O)CSc2nnc(SCC(=O)Nc3c(C)cc(C)cc3C)n2N)c(C)c1`, 1.72.
With `S=C1NC(c2ccccc2)=NCN1c1ccccc1`, the z-score turned out to be 0.145.
Regarding `COc1ccccc1NC(=O)c1ccc(Br)o1`, the z-score was 0.433.
On to `OCCCCNc1cccc2ccccc12`, for which the z-score worked out at 1.32.
As for `CCN(Cc1ccccc1)C(c1ccc(C(F)(F)F)cc1)c1nnnn1C(C)(C)C` (configuration not stated), the z-score came out at 0.374.
`CCCCC1CC(C)(C(=O)CSc2nc3ccccc3s2)OC1=O` (configuration not stated): the z-score is -0.399.
With `O=S(Cc1ccc(Cl)cc1)CC(O)(c1ccccc1)c1ccccc1` (configuration not stated) the figure was -0.677; with `O=C(COc1ccc(Cl)cc1)Nc1nnc(-c2ccc3c(c2)CCCC3)o1`, -0.441.
Consider `COc1ccc(-c2nc(C)ncc2N=Nc2ccccc2)cc1`, for which the z-score is -0.33.
Turning to `O=C1CC(N2CCN(c3nc4ccccc4s3)CC2)C(=O)N1Cc1cccs1` (configuration not stated), the z-score came to 1.02.
For `CCCCn1nc(C(=O)O)ccc1=O` the value was -0.165; for `COc1ccccc1-c1cc(C(F)(F)F)nc(S(=O)(=O)CCCC(=O)O)n1`, -0.104.
Regarding `O=c1cc(N2CCN(c3ccc(F)cc3)CC2)[nH]c(=O)n1C1CCCCC1`, the z-score was -0.16.
For the compound `COc1ccc(OCC(=O)NC(=S)Nc2ccc(S(=O)(=O)Nc3cc(OC)nc(OC)n3)cc2)cc1`, the z-score was -0.254.
Regarding `Cc1sc(NC(=O)c2ccco2)c(C(c2cccnc2)N2CCN(C)CC2)c1C` (configuration not stated), the z-score is -0.0535.
Regarding `CCC(C)[C@H](NC(=O)OC(C)(C)C)c1nnc(SCc2c(C)[nH]c(=O)[nH]c2=O)o1` (some centres not stated), the z-score is -0.262.
Consider `Cc1ccc(NC(=S)NCc2ccccc2)cc1[N+](=O)[O-]`, for which the z-score was active: 3.51.
For `CCC(c1nnnn1Cc1ccco1)N1CCN(C(=O)c2ccco2)CC1` (configuration not stated) the value was -0.202.
For `CCOC(=O)CC1C(=O)NCCN1Cc1cccc(C(F)(F)F)c1` (configuration not stated) the value was -0.291; for `O=S(=O)(NCC1CCCO1)c1cccc(S(=O)(=O)N2CCCC2)c1` (configuration not stated), 0.385; for `CC(Oc1ccc(F)cc1)C(=O)NN` (configuration not stated), -0.308.
For `CCn1c(SCC(=O)Nc2ccccc2N2CCOCC2)nnc1-c1ccccc1O` the value was -0.701; for `CCS(=O)(=O)c1nc2ccccc2n1Cc1ccccc1Cl`, -0.725.
Regarding `CCOc1ccccc1CN1C(=O)NC(C)(c2ccccc2)C1=O` (configuration not stated), the z-score is -1.62.
`O=C(Nc1ccccc1)Nc1nncs1` yielded a z-score of 0.101.
For `C=CCNc1nc(-c2cc3ccccc3o2)cs1` the value was -0.118; for `CC(C)N(C(=O)Cn1c(SCC(=O)Nc2nccs2)nc2ccccc21)C(C)C`, 0.8.
For `COC(=O)c1ccc(N2CCN(S(=O)(=O)c3c(C)cc(C)cc3C)CC2)c([N+](=O)[O-])c1`, the z-score is 0.129.
For `COc1ccccc1C1SCCN1C(=O)c1ccc([N+](=O)[O-])cc1` (configuration not stated) the value was -0.101; for `Cc1ccc(CN2C(=O)c3ccccc3C2C(=O)NCc2cccnc2)cc1` (configuration not stated), 1.24; for `Cc1cc(C)n(S(=O)(=O)c2cc(C)c(C)cc2C)n1`, -0.084.
`CC1(CCc2ccc(O)cc2)NC(=O)NC1=O` (configuration not stated): the z-score was determined as 0.0371.
For `CC1CCCCC1NC(=O)C(Cc1ccccc1)NS(=O)(=O)c1cccs1` (configuration not stated) the value was 0.146; for `Cc1c(Cl)cccc1NC(=O)CCC(=O)NNC(=O)c1ccco1`, -0.104.
With `O=C(CSc1nnc(-c2ccccc2O)o1)N1CCc2ccccc2C1` the figure was -0.614.
With `O=C(Nc1ccccc1)c1nn(-c2ccccc2)c(=O)cc1C(F)(F)F` the figure was -0.145; with `COC(=O)C(N)Cc1ccc(O)c(O)c1` (configuration not stated), -0.0766; with `COc1ccc(S(=O)(=O)N(C(=O)c2ccncc2)c2ccc3oc4c(c3c2)CCCC4)cc1`, -0.218.
With `CSc1nc(-c2ccccc2)cc(C(F)(F)F)c1C#N`, the z-score was -0.119.
With `COc1ccc(Nc2nc(N)nc(COc3ccc(OC)cc3)n2)cc1` the figure was -0.113; with `Cn1c(SCc2nn[nH]n2)nc2c1c(=O)n(Cc1ccccc1Cl)c(=O)n2C`, -0.14.
With `Fc1ccc(-c2nnc3ccc(N4CCc5ccccc5C4)nn23)cc1` the figure was 2.89; with `CC(=O)c1ccc(NC(=O)CC(NCCC2=CCCCC2)C(=O)O)cc1` (configuration not stated), 0.55; with `Cc1nc(SC2CC(=O)N(c3ccccc3)C2=O)nc2c1CCCC2` (configuration not stated), -1.76.
For the compound `O=C(O)c1nn(-c2ccccc2)c(-c2ccccc2)c1C(=O)c1ccccc1`, the z-score is -0.241.
For `CCC1S/C(=N/N=C/c2ccco2)NC1=O` (configuration not stated) the value was -0.425; for `CCn1c(CCNC(=O)c2cccs2)nnc1SCC(=O)Nc1ccc(Cl)cc1`, -0.883; for `Cc1ccc2oc(-c3ccccc3)c(C(=O)O)c(=O)c2c1`, 0.496.
With `COc1ccc(NC(=O)CC2C(=O)N(C)C(=S)N2Cc2ccco2)cc1` (configuration not stated) the figure was 0.0416; with `CCCCCC[n+]1c(-c2ccc(Cl)cc2Cl)csc1Nc1ccccc1`, -0.156.
With `c1ccc(COc2ccc(CNn3cnnc3)cc2)cc1` the figure was 0.241; with `COc1cc(-c2nnc(COc3ccc(Cl)cc3C)o2)cc(OC)c1OC`, 0.0119; with `C=CCn1c(=O)c2ccccc2n2c(SCC(=O)/C(C#N)=C(\C)N)nnc12`, -1.28.
For the compound `CCCCNC(=O)c1ccc(N2CCC3(CC2)OCCO3)c([N+](=O)[O-])c1`, the z-score is -0.757.
For `Oc1ccc(-c2nc3ncccn3c2Nc2ccc3c(c2)OCCO3)cc1` the value was -0.591.
Consider `Cc1cc(C)c(C(=O)/C=C/c2ccc(C(C)C)cc2)c(=O)[nH]1`, for which the z-score was -1.19.
As to `COc1ccccc1N1CCN(Cc2cc(=O)n3ccsc3n2)CC1`, the z-score was -0.118.
For `N#C/C(C(=O)NCc1ccccc1)=C1\SC(CCO)C(=O)N1c1ccccc1` (configuration not stated) the value was -0.123; for `Cn1c(=O)c2c(nc(NCc3ccc4c(c3)OCO4)n2C)n(C)c1=O`, 0.176; for `CSc1ccc(S(=O)(=O)NCc2ccc(Cl)cc2)cc1`, -0.339.
With `N#Cc1cc(-c2ccccc2)cn(Cc2c(Cl)cccc2Cl)c1=O`, the z-score is -0.0549.
For the compound `COC(=O)c1cn[nH]c1NC(=S)Nc1ccccc1C`, the z-score is -0.126.
For `CC(=O)c1sc(NC(=O)c2ccc(C)cc2)nc1C` the value was -0.377; for `COC(=O)c1ccc(C(=O)NC(=S)Nc2nc3c(s2)CC(C)CC3)cc1` (configuration not stated), 0.17.
As to `CN1/C(=C\C(=O)CSc2nnc(N)s2)C(C)(C)c2ccccc21`, the z-score is -0.275.
For `CC1(C)CC(=O)C=C(Nc2ccccc2NC(=O)c2cnccn2)C1` the value was -0.231; for `O=C(Cc1csc(-c2ccccc2)n1)NCc1ccc(F)cc1`, -0.252; for `CCCS(=O)(=O)N1CCCC(C(=O)NCCCN(Cc2ccccc2)C(C)C)C1` (configuration not stated), 0.0261.
As to `CC1(C)Cc2c(c(N3CCOCC3)nc3sc4c(=O)[nH]cnc4c23)CS1`, the z-score is -1.17.
For `CC(=O)N1CCN(C(=S)c2ccc(-c3ccc(Cl)cc3)o2)CC1` the value was -0.00435; for `Cc1cccc(-c2cc3nc4c(c(N5CCC6(CC5)OCCO6)n3n2)CCCC4)c1`, 0.391.
For `C/C(=N\Nc1nc2ccccc2s1)c1ccc2c(c1)OCO2` the value was -0.286; for `CSc1cccc(NC(=O)CN(c2ccc(C)cc2C)S(C)(=O)=O)c1`, active: 3.01; for `O=C(NC1CCCCC1)C(c1ccco1)N(C(=O)C(F)(F)F)C1CC1` (configuration not stated), -0.066.
With `Cc1ccc(C(=O)c2ccccc2C(=O)O)c(O)c1` the figure was 0.0184; with `COC(=O)c1cc2ccccc2oc1=O`, -0.0937; with `COc1cccc(N(C(C)=O)c2nc(C)cc(C)c2C#N)c1`, -0.258.
Compound `Cn1c(SCC(N)=O)nnc1-c1ccccc1` yielded a z-score of 0.403.
Regarding `O=C1CN(c2ccc(Cl)cc2)C2(CCCCC2)S1`, the z-score is -0.106.
Consider `Nc1nc(N2CCCCC2)nc(N2CCCCC2)n1`, for which the z-score is -0.226.
For the compound `CC1(C)SCC2C(=O)N3C(CSC3(C)C)C(=O)N21` (configuration not stated), the z-score was -0.292.
For `COCCCNC(=O)C1CC(=O)N(CCc2ccccc2)C1` (configuration not stated), the z-score is -0.202.
